Measured values: the supplement of paper PMC12217912
The list shows a part of the results. Sequences were assembled here from the parent chain. Inactive controls read about 0.05.

B1: TEV protease; numbered along this chain (parent)
chain: MGESLFKGPRDYNPISSSICHLTNESDGHTTSLYGIGFGPFIITNKHLFRRNNGTLVVQSLHGVFKVKDTTTLQQHLVDGRDMIIIRMPKDFPPFPQKLKFREPQREERICLVTTNFQTKSMSSMVSDTSCTFPSGDGIFWKHWIQTKDGQCGSPLVSTRDGFIVGIHSASNFTNTNNYFTSVPKNFMELLTNQEAQQWVSGWRLNADSVLWGGHKVFMVKPEEPFQPVKEATQL

Variants of: B1
Test: raw area under fraction-flipped curve 0-4 h after induction (AUC4h, not background-subtracted), DNA-recorder readout of cleavage of the substrate (dimensionless); higher = more cleavage of the substrate by the protease variant
Conditions: temperature: 34 °C; time window: 0-4 h after rhamnose induction
Method: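 In vivo DNA recorder in E. coli TOP10(DE3) ΔrhaA at 34 °C. Each TEVp single-site mutant (parent TEVp 0) is paired with a single-site variant of the 7-mer TEVs (canonical ENLYFQ|S). The substrate sits between flexible linkers in a Bxb1-sfGFP-TEVs-SsrA fusion, so cleavage stabilises Bxb1 and speeds flipping of a recombination array, read by NGS. The value is the raw area under the fraction-flipped curve over 0-4 h after rhamnose induction (AUC4h), with ≥20 reads per time point. It is not background-subtracted; inactive controls average about 0.047.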
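Also: Bxb1 expression induced with 0.2% (w/v) L-rhamnose at OD600 near 0.5, cultures sampled hourly, flipped fraction per protease–substrate barcode pair counted by paired-end Illumina sequencing.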

Variant	area with substrate CNLYFQS	area with substrate HNLYFQS	area with substrate INLYFQS	area with substrate KNLYFQS	area with substrate LNLYFQS	area with substrate MNLYFQS	area with substrate NNLYFQS	area with substrate PNLYFQS	area with substrate WNLYFQS	area with substrate YNLYFQS	area with substrate DNLYFQS	area with substrate FNLYFQS	area with substrate GNLYFQS	area with substrate RNLYFQS	area with substrate SNLYFQS	area with substrate TNLYFQS	area with substrate VNLYFQS	area with substrate QNLYFQS
N24K	0.0572	0.0516	0.0379	0.0718	0.0525	0.0591	0.0488	0.062	0.062	0.0585	–	–	–	–	–	–	–	–
G35M	0.0354	–	–	0.0532	–	–	–	–	–	–	0.0488	–	–	–	–	–	–	–
G35L	0.046	–	0.0406	–	–	–	–	–	–	–	0.041	0.0666	0.0501	–	–	–	–	–
G37R	0.0509	0.0648	–	0.063	–	0.0543	0.0393	–	0.0594	–	–	0.0278	–	0.0803	0.042	0.0551	–	–
G37L	0.107	0.0564	–	–	0.0455	–	–	–	0.0815	–	–	0.0614	–	0.0325	0.042	0.0554	0.0576	–
P40A	0.071	0.0667	0.0956	0.0707	0.0711	0.0663	0.0708	0.0648	0.057	0.0544	–	0.0694	0.0619	0.075	0.0631	–	0.0646	–
G39V	0.0358	0.0438	0.0413	0.0336	0.0443	0.0421	0.0332	0.0453	0.0401	0.0396	–	0.0486	0.0312	0.0476	0.0401	0.0425	0.0386	–
G39S	0.0544	0.0383	0.026	0.0598	0.0407	0.0414	0.0446	0.0501	0.0324	0.0419	–	–	0.0503	0.0498	0.0444	0.05	–	–
G39K	0.0411	0.0451	0.0411	0.0436	0.0486	0.0414	–	0.0367	0.0393	–	–	–	0.0424	–	0.053	0.0523	0.0465	0.0466
G39D	0.0228	0.05	0.0418	0.0469	0.0332	0.0582	0.0372	0.0487	0.0408	0.0432	–	–	0.0107	–	0.0532	0.0474	0.047	0.0495
H21S	0.0678	0.0711	0.0569	0.074	0.0546	0.0647	0.0568	0.0651	0.0602	0.0449	–	0.0835	0.0674	–	–	0.0642	0.049	–
H21K	0.0517	0.0624	0.0608	–	0.0749	0.0589	–	–	0.0624	0.0662	–	0.0584	0.0595	0.0375	–	0.0472	0.0765	0.0591
E3G	0.0655	0.0604	0.0557	0.0515	0.0693	–	–	0.0632	0.0638	0.0343	–	–	–	0.0434	0.0625	0.0661	–	–
E3P	0.0661	0.0661	0.0649	–	0.079	–	–	0.0417	–	0.092	–	–	–	–	0.0477	0.0929	0.0614	–
F41N	0.0755	0.0633	0.06	–	–	0.0677	0.0577	–	0.063	0.061	–	0.0707	0.0413	–	0.0683	–	–	0.0659
G28M	0.0556	0.0647	–	–	0.059	–	–	–	0.0596	0.048	–	0.0452	0.0487	0.0271	0.0642	0.0544	–	–

Variant	area with substrate CNLYFQS	area with substrate HNLYFQS	area with substrate INLYFQS	area with substrate KNLYFQS	area with substrate LNLYFQS	area with substrate MNLYFQS	area with substrate NNLYFQS	area with substrate PNLYFQS	area with substrate WNLYFQS	area with substrate YNLYFQS	area with substrate DNLYFQS	area with substrate FNLYFQS	area with substrate GNLYFQS	area with substrate RNLYFQS	area with substrate SNLYFQS	area with substrate TNLYFQS	area with substrate VNLYFQS	area with substrate QNLYFQS
G28S	0.0598	0.0603	–	0.0592	0.0818	0.0562	0.0563	0.066	0.0497	0.0608	–	–	0.073	0.0636	0.0675	0.0426	0.075	–
G28H	0.0697	–	–	0.0612	0.0508	–	–	–	–	0.0602	–	0.0609	–	0.0655	–	0.0797	–	–
C20E	0.0463	0.0405	–	0.0476	0.0502	0.0606	–	0.0396	0.0466	0.0452	–	–	0.0533	–	0.0435	0.0436	–	–
C20A	0.051	0.0595	0.067	–	–	0.0372	0.0577	0.077	0.0658	0.0732	–	–	–	0.0587	0.0839	0.077	–	0.0852
Y12P	0.065	0.0616	0.0688	0.0644	0.036	0.0687	0.0455	0.0638	0.0577	0.0695	–	–	0.0629	0.078	0.0656	–	0.0636	0.083
G2Q	0.07	0.0496	–	–	0.0652	0.0646	0.0797	–	–	0.0754	–	0.0646	–	0.0778	0.0687	0.0681	–	–
Y34C	0.0536	0.0654	0.0562	–	0.0861	–	–	0.0664	0.0618	0.0574	–	–	0.0668	0.0744	0.0834	0.0618	0.0642	–
R10I	0.0634	–	–	0.0661	0.0773	–	–	0.0538	0.0402	–	–	0.0737	–	–	–	0.0622	–	–
R10L	0.0625	–	–	0.0728	0.0659	0.0666	0.0668	0.0784	0.0452	–	–	0.0782	0.0667	–	0.0636	0.0708	–	–
K7A	0.0719	0.0676	–	0.0691	–	–	–	–	0.0664	0.0615	–	–	0.0715	–	0.097	0.0654	–	–
I19Q	0.0691	0.0614	0.0736	–	–	–	0.0735	0.0681	0.0394	0.0647	–	0.0572	0.0667	0.0628	–	0.0655	0.0678	0.0661
I19T	0.0897	0.0778	–	–	0.0686	0.0626	0.0658	–	0.0463	–	–	0.0664	–	–	–	–	–	–
D11K	0.0647	0.0685	0.0621	0.0576	0.0645	–	0.0721	0.0634	0.0581	0.0487	–	–	–	–	–	0.0565	0.0704	0.0556
D11R	0.0666	0.0744	0.0493	0.0821	0.0541	0.072	–	0.0707	0.0607	0.0806	–	0.0608	–	0.0685	0.0642	–	0.0654	–
D11I	0.0614	0.0788	0.0635	–	–	0.0621	–	0.0634	0.0606	–	–	–	–	–	–	0.0799	0.0742	0.066
